Assay results: PubChem BioAssay AID1508623 (National Center for Advancing Translational Sciences (NCATS), 2021)
Screen size: about 48,000 compounds; about 450 (0.94%) were called active. Inconclusive results (about 19%) are left out. Calls follow the shape of the dose curve; as a rule, active = well fitted inhibition curve with a large enough effect; inconclusive = small, poorly fitted or top-dose-only effect; inactive = no such curve, though single readings can be large or run the other way. Some of the results follow.

assay: Primary qHTS for Identification of Small Molecule Inhibitors of Huntingtin Promoter Activity; conditions: HEK293 HTT promoter firefly luciferase reporter (activity 0% = vehicle and -100% = no light), 24 h; series mostly up to 57.5 µM; activity change, negative = inhibition: at the top concentration; also: nearly all actives have a fitted effect of over 50% in size
In short: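 Firefly luciferase readout (Dual-Glo, 10 min RT) after 24 h, 37 °C compound exposure (final up to 57.5 uM) of HEK293 reporter cells cultured 24 h beforehand; PTC124 at 50 uM final as control inhibitor; activity scaled vehicle 0%, zero RLU -100%.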

Activity change, negative = inhibition, inactive:
Cc1c(Cl)cccc1NC(=O)CCS(=O)(=O)c1ccc(Br)s1 -2.79%
NC(=O)c1cc(S(=O)(=O)NCC2CCC(C(=O)Nc3cccc(Cl)c3)CC2)cs1 (configuration not stated) -32.3%
CCCc1nnc(NC(=O)c2nc(S(=O)(=O)Cc3ccc(C)cc3)ncc2Cl)s1 -31.2%
O=C(c1ccc2c(Cl)c3c(nc2c1)CCCC3)N1CCN(c2ccccc2)CC1 -0.0756%
Cc1ccc(C)c(NC(=O)CCNS(=O)(=O)c2ccc3c(c2)CCCC(=O)N3)c1 -31.4%
CN(C(=O)CSc1nnc2[nH]c(=O)cc(-c3ccccc3)n12)c1ccccc1 10.5%
COCCNC(=O)c1ccc2c(c1)N(Cc1cccc(Cl)c1)C(=O)c1ccccc1S2=O (configuration not stated) -18.1%
CCOC(=O)c1cc(-c2ccccc2)n(CC(=O)NCc2ccccc2OC)c1C -17.7%
Cn1c(=O)n(C)c2cc(S(=O)(=O)Nc3ccccc3C(=O)O)ccc21 4.23%
O=C(Nc1ccc(F)c(F)c1)C1CCCN(S(=O)(=O)c2cccc3nonc23)C1 (configuration not stated) -12.1%
Cc1ccc(C)c(N2CCN(C(=O)CN3C(=O)CSc4c3c(C)nn4-c3ccccc3)CC2)c1 -15.4%
Cc1cc(C)c2c(=O)cc(CSCC(=O)Nc3nnc(C)s3)[nH]c2c1 0.508%
COc1ccc(N(C)C(=O)NCc2noc3ccc(C)cc23)c(OC)c1 -5.47%
CCCNC(=O)Nc1cc(C(=O)NCc2cccc(OCC)c2)ccc1N1CCCC1 -22.7%
COc1ccc(C(=O)CCC(=O)Nc2ccccc2C)cc1 7.09%
COc1ccccc1NC(=O)CSCc1cc(=O)c2c(C)cc(C)cc2[nH]1 -2.89%
Cn1cc(C[C@@H](N)C(=O)O)c2ccccc21 -6.63% [at 25.2 µM]
Cc1cccc(NC(=O)C2CCCN(S(=O)(=O)c3c(C)noc3/C=C/N(C)C)C2)c1C (configuration not stated) -21.2%
CCC(Sc1nncn2c1cc1sccc12)C(=O)Nc1cccc(OC)c1 (configuration not stated) 1.53%
Cc1ccc(CN2CCN(C3CCN(C(=O)OC(C)(C)C)CC3)C(=O)C2=O)cc1 -13.1%
CC(C)(C)c1ccc(C(=O)Nc2ccccc2C(=O)OCc2cc(=O)n3ccsc3n2)cc1 19.6%
C/C(=C(\CCOP(=O)(O)O)SC(=O)c1ccccc1)N(C=O)Cc1cnc(C)nc1N -1.77% [at 6.01 µM]
Cc1cc2nc3c(=O)n(C)c(=O)n(C)c3nc2cc1N=CN(C)C 18.9%
CCOC(=O)CC(NC(=O)Cn1nnc(-c2ccccc2C)n1)c1ccc(OC)cc1 (configuration not stated) -6%
CCC(=O)N1CCc2cc(Br)cc(S(=O)(=O)CCC(=O)Nc3ccccc3C)c21 -6.66%
COc1ccc(-c2nc(SCC(=O)NCCCc3ccccc3)n[nH]2)cc1 -28.5%
COc1ccc(NC(=O)CCc2c(C)nn(-c3ccc(N4CCOCC4)nn3)c2C)cc1Cl 22.2%
CCN(CC)CCCNC(=O)c1oc2c(c1C)-c1nn(Cc3ccc(Cl)cc3)cc1CC2 -7.53%
Cc1ccc2occ(CC(=O)Nc3ccc(S(N)(=O)=O)cc3)c2c1 -16.4%
COc1ccc(NC(=O)Cn2c(C)c3cnn(-c4ccccc4)c(=O)c3c2C)c(OC)c1 -16.4%
Cc1cccc(-c2noc(C3CC(=O)N(c4ccc5c(c4)OCCO5)C3)n2)c1 (configuration not stated) 4.87%
Cc1ccc(N(CC(=O)NC(C)c2ccccc2)S(=O)(=O)c2c(C)noc2C)cc1 (configuration not stated) -22.9%
CCc1ccc(C(=O)c2cn(CC(=O)Nc3ccc(F)cc3)c3cc4c(cc3c2=O)OCO4)cc1 -27%
Cc1cc(OCC(=O)Nc2sc3c(c2C(N)=O)CCCC3)ccc1C(C)C -13.2%
COCCNC(=O)CCC(=O)NNc1nc2ccccc2c2nc(-c3ccccc3)nn12 6.19%
CCOc1ccc(NC(=O)CSc2ncc3c(n2)-c2ccccc2N(C)S3(=O)=O)cc1 -16%
Cc1ccc(NC(=O)N2CCC(n3c(C)nc4cccnc43)CC2)c(Cl)c1 -3.99%
Clc1ccccc1-c1nc(Nc2ccccc2)nc2ccc(Br)cc12 -8.28%
Nc1c2c(nc3ccccc13)CCCC2
Cc1cc(C)cc(NC(=O)C2CCN(S(=O)(=O)c3cccc4nonc34)CC2)c1 -4%
COc1ccc(CNC(=O)Nc2cn(CC(C)C)c(=O)c3ccccc23)c(OC)c1 5.96%
CCCCC(CC)COC(=O)C(C#N)=C(c1ccccc1)c1ccccc1 (configuration not stated)
CCC(Oc1ccccc1)C(=O)Nc1nnc(S(=O)(=O)Nc2ccccc2)s1 (configuration not stated) -5.24%
Cc1noc(-c2ccccc2OCC(=O)Nc2cccc([N+](=O)[O-])c2)n1 -5.17%
COC(=O)CCc1sc(Nc2ccc(OC)cc2)nc1-c1ccc(OC)cc1 -15.1%
Cc1ccccc1NC(=O)CC1C(=O)NCCN1C(=O)c1cccc(Cl)c1 (configuration not stated) -2.88%
CC(=O)c1ccc(N2CCN(C(=O)NCc3noc4ccc(C)cc34)CC2)cc1 -30%
CCOC(=O)C1CCCN(S(=O)(=O)c2ccc3[nH]c(=O)ccc3c2)C1 (configuration not stated) -33.8%
Cc1ccc(S(=O)(=O)NCc2nc3nc(C)cc(C)n3n2)c(C)c1 0%
CCOC(=O)c1ccccc1NC(=O)CSc1nc2ncccc2[nH]1 -19.1%
COc1ccc(N2CCN(C(=O)CCS(=O)(=O)c3cc4c(cc3Cl)NC(=O)CO4)CC2)cc1 -22.9%
Cc1ccc(C)c(N(C)C(=O)C2CCN(S(=O)(=O)c3cccc4nsnc34)CC2)c1 -19.1%
COc1ccc(-c2nnn3c2nc(N2CCCC(C)C2)c2ccccc23)cc1 (configuration not stated) -17.7%
CC(=O)c1cc(C(=O)Nc2cccc(C)c2)c2ccccn12 18.8%
CCOC(=O)c1ccc(NC(=O)CC2C(=O)N(c3ccccc3)C(=O)N2Cc2cccs2)cc1 (configuration not stated) -25.4%
Cc1ccc(S(=O)(=O)c2[nH]c(-c3ccccc3)nc2SCC(=O)O)cc1 -17.6%
COc1ccc(N2CCN(CC(O)COc3ccc(C(C)(C)C)cc3)CC2)cc1 (configuration not stated) -23%
O=c1c2sc3ccccc3c2n(Cc2ccccc2)c(=O)n1Cc1ccccc1 -11.9%
CCN(C(=O)Cc1c(C(=O)O)[nH]c2ccccc12)c1ccc(OC)cc1 -20.5%
CCc1ccc(CN(C(=O)c2nc(SC)ncc2Cl)C2CCS(=O)(=O)C2)cc1 (configuration not stated) -23.5%
CCC(=O)N1c2ccccc2CC1C(=O)N1CCN(c2ccccc2)CC1 (configuration not stated) -2.69%
CC(C)Cc1nn2c(=O)cc(COC(=O)c3ccc(NC(=O)c4cccs4)cc3)nc2s1 -2.18%
CC(=O)c1ccc(N2CCN(C(=O)C3CCN(S(=O)(=O)c4cccc5nonc45)CC3)CC2)cc1 -12.4%
CCOc1ccccc1NC(=O)Cn1c(=O)ccc2cc(S(=O)(=O)N3CCC(C)CC3)ccc21 -35%
CCOC(=O)c1ccc(NC(=O)CCc2c(C)nc3c(c(C)nn3C)c2C)cc1 -26.2%
CCOC(=O)C1CCN(C(=O)C2COc3ccccc3C2)CC1 (configuration not stated) -17.8%
O=C(c1cc2ccccc2oc1=O)N(Cc1cccc(Cl)c1)C1CCS(=O)(=O)C1 (configuration not stated) -10.3%
COc1cccc(-n2ccnc2SCC(=O)Nc2cccc(C)c2C)c1 -16.5%
CCc1ccc(NC(=O)Cn2cnc3sc(C)c(S(=O)(=O)N4CCC(C)CC4)c3c2=O)cc1 -17.4%
CCCC(=O)NCC(c1ccc2c(c1)OCO2)N1CCN(c2ccc(F)cc2)CC1 (configuration not stated) -22%
COc1ccc(-n2ncc(C(=O)NCc3ccccc3)c2C2CCN(C(=O)OC(C)(C)C)CC2)cc1 -14.6%
COc1ccc(-c2nc3c(C#N)c[nH]n3c2NC2CCCCC2)c(OC)c1 -29.3%
COc1ccc(CCNC(=O)CCn2c(=O)c3cccn3c3ccc(F)cc32)c(OC)c1OC 2.65%
Cc1ccc(OCc2nc3ccccc3n2CC(C)C)cc1 -5.63%
CCOc1ccccc1CNC(=O)Nc1cn(CC(C)C)c(=O)c2ccccc12 -16.7%
CC(Oc1ccccc1)C(=O)Nc1nc2ccc(S(N)(=O)=O)cc2s1 (configuration not stated) -14%
Cc1cc2c(cc1S(=O)(=O)NCc1ccc(N(C)C)cc1)OCC(=O)N2 -36.4%
COc1ccc(N(CC(=O)NC(C)c2ccccc2)S(=O)(=O)c2c(C)noc2C)cc1 (configuration not stated) -8.12%
Cc1ccc(CN2CCC(CNc3ncnc4onc(-c5ccc(Cl)cc5)c34)CC2)cc1 -19.6%
CCOC(=O)c1noc2ncnc(N3CCN(c4ccccc4OC)CC3)c12 -20.7%
COc1cc(C2NC(=O)NC(C)=C2C(=O)Nc2cc(C)cc(C)c2)ccc1O (configuration not stated) -2.1%
COc1ccc2c(c1)c(C1=C(c3c[nH]c4ccccc34)C(=O)NC1=O)cn2CCCN(C)C -22.3%
CC(C)(C)NS(=O)(=O)c1ccc2nc(NC(=O)c3cccnc3)sc2c1 0.178%
COC(=O)CNC(=O)Nc1cc(C(=O)NCc2ccc(C)cc2)ccc1N1CCCC1 -19.6%
COC(=O)C1CCN(S(=O)(=O)c2cc3c4c(c2)C(C)C(=O)N4CCC3)CC1 (configuration not stated) -10.9%
CC(=O)N1c2ccccc2CC1C(=O)N1CCN(c2ccc(F)cc2)CC1 (configuration not stated) -12.2%
COc1ccc(C)cc1NC(=O)c1oc2ccc(S(=O)(=O)N(C)C3CCCCC3)cc2c1C -5.8%
O=C(Nc1ccc(F)cc1F)c1ccc(CN2CC(=O)N3CCCCC3C2=O)cc1 (configuration not stated) -17.8%
CC(C)(C)c1cc(C(C)(C)C)c2oc(=O)c(-c3nc4ccccc4[nH]3)cc2c1 -20.2%
O=C(CSc1nc2ccccc2c2nc(-c3ccccc3)nn12)Nc1ccc(Br)cc1 17.7%
Cc1ccc(Cn2c(SCC(=O)NCc3ccc(Cl)cc3)nc3ccsc3c2=O)cc1 -8.02%
COCCCNC(=O)Cn1c(=O)n(-c2ccc(C)cc2)c(=O)c2c1c1cc(C)ccc1n2C -3.08%
CCS(=O)(=O)N1CC(=O)N(c2ccccc2C)C(C)(C(=O)NC2CCCCC2)C1 (configuration not stated) -1.79%
O=c1cc(-c2ccccc2)oc2cc(O)cc(O)c12 43%
Cc1ccc(Cl)cc1N1CCN(C(=O)c2cn(C3CCCCC3)c(=O)c3c2c2ccccc2n3C)CC1 -19.6%
CN(C)c1ccc(C(CNC(=O)COc2ccc(Cl)cc2)N2CCOCC2)cc1 (configuration not stated) -6.16%
CC(C)c1ccc(S(=O)(=O)c2nnn3c2nc(NCCc2ccccc2)c2sccc23)cc1 -15.1%
